Here are results for 25 molecules from the supplement of paper PMC11880418.

Structures can show the parent of a compound that is named as a salt. Some of the results follow. The data scatter; read single values as rough.

Assay in all cases: ALDHbr (CSC) cell proportion score relative to DMSO vehicle (ratio to DMSO); breast (SUM159) / gastric (MKN45) / pancreatic (PANC1) / colon cancer lines; ALDHbr cells have high ALDH activity and are rich in cancer stem cells (CSC); higher = more CSC (ALDHbr) cells remaining
Holding throughout (conditions): 10 µM; 72 h

The subject of test [1] is MKN45.
Test [2] deals with PANC1.
For test [3], the system named is SUM159.
The test system of test [4] is T84.
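Note: High-content imaging of ALDEFLUOR-stained cells with Hoechst-labelled nuclei in 384-well plates, triplicate wells, scored as Z-score against 0.1% DMSO vehicle, negative meaning fewer ALDHbr cells.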

In the case of `C[C@@](Cc1ccc(O)c(O)c1)(NN)C(=O)O` [Carbidopa], the ALDHbr in test [1] came to 1.25; in test [2] it was 0.933; in test [3] it was 1.03; in test [4], 0.758.

For `C=CCSCC1Nc2cc(Cl)c(S(N)(=O)=O)cc2S(=O)(=O)N1` (stereo not given) [Althiazide], the ALDHbr in test [1] is 1.1; in test [2], 0.696; in test [3], 1.19; in test [4], 1.02.

Turning to `CC(=O)OCC(=O)NCCCOc1cccc(CN2CCCCC2)c1` [Roxatidine Acetate hydrochloride], the ALDHbr in test [1] was determined as 1.12; in test [2] it was 0.893; in test [3], 1.09; in test [4] it was 0.974.

As for `CN1CCC(=C2c3ccccc3Sc3ccccc32)CC1` [Pimethixene maleate], the ALDHbr in test [1] stood at 0.945; in test [2], 1.08; in test [3] it was 0.604; in test [4], 0.896.

Regarding `Cc1[nH]c(=O)c(C#N)cc1-c1ccncc1` [Milrinone], the ALDHbr was 0.987 in test [1], 0.761 in test [2], 1 in test [3] and 0.831 in test [4].

Take `CCCNC(=O)NS(=O)(=O)c1ccc(Cl)cc1` [Chlorpropamide]: the ALDHbr turned out to be 1.02 in test [1], 0.817 in test [2], 0.834 in test [3] and 0.852 in test [4].

As for `Oc1ncnc2[nH]ncc12` [Allopurinol], the ALDHbr is 0.939 in test [1], 0.933 in test [2], 1.1 in test [3] and 0.844 in test [4].

`Cc1[nH]cnc1CN1CCc2c(c3ccccc3n2C)C1=O` [Alosetron hydrochloride]: the ALDHbr in test [1] came out at 1.29; in test [2], 0.997; in test [3], 0.804; in test [4], 0.995.

For the molecule `CC1(C)S[C@@H]2[C@H](NC(=O)[C@H](N)c3ccc(O)cc3)C(=O)N2[C@H]1C(=O)O` [Amoxicillin], the ALDHbr in test [1] is 0.945; in test [2], 0.906; in test [3], 1.14; in test [4], 1.05.

With `N[C@@H]1CONC1=O` [D-cycloserine], the ALDHbr in test [1] amounted to 1.06; in test [2], 1.03; in test [3], 1.03; in test [4], 0.993.

In the case of `CC(C(O)c1ccc(O)cc1)N1CCC(Cc2ccccc2)CC1` (stereo not given) [Ifenprodil tartrate], the ALDHbr in test [1] amounted to 1.18; in test [2], 1.16; in test [3], 1.25; in test [4], 0.869.

Regarding `N[C@H]1CONC1=O` [(S)-(-)-Cycloserine], the ALDHbr in test [1] was determined as 1.12; in test [2] it was 0.986; in test [3], 1.16; in test [4], 0.851.

For the molecule `CCC[C@H](N[C@@H](C)C(=O)N1[C@H](C(=O)O)C[C@@H]2CCCC[C@@H]21)C(=O)OCC` [Perindopril], the ALDHbr in test [1] was 1.17; in test [2], 1.11; in test [3] it was 1.08; in test [4] it was 1.18.

Take `COc1ccccc1Oc1c(NS(=O)(=O)c2ccc(C(C)(C)C)cc2)nc(-c2ncccn2)nc1OCCO` [Bosentan]: the ALDHbr was 0.778 in test [1], 0.964 in test [2], 0.428 in test [3] and 1.07 in test [4].

Turning to `CCN(CC)C(=O)/C(C#N)=C/c1cc(O)c(O)c([N+](=O)[O-])c1` [Entacapone], the ALDHbr in test [1] turned out to be 0.908; in test [2] it was 0.792; in test [3], 0.963; in test [4], 0.976.

On to `Cc1ccc(-c2ncc(Cl)cc2-c2ccc(S(C)(=O)=O)cc2)cn1` [Etoricoxib], for which the ALDHbr is 0.954 in test [1], 0.826 in test [2], 0.961 in test [3] and 1.07 in test [4].

In the case of `CN[C@H](CC(C)C)C(=O)N[C@H]1C(=O)N[C@@H](CC(N)=O)C(=O)N[C@H]2C(=O)N[C@H]3C(=O)N[C@H](C(=O)N[C@H](C(=O)O)c4cc(O)cc(O)c4-c4cc3ccc4O)[C@H](O)c3ccc(c(Cl)c3)Oc3cc2cc(c3O[C@@H]2O[C@H](CO)[C@@H](O)[C@H](O)[C@H]2O[C@H]2C[C@](C)(N)[C@H](O)[C@H](C)O2)Oc2ccc(cc2Cl)[C@H]1O` [Vancomycin hydrochloride], the ALDHbr is 1.04 in test [1], 0.889 in test [2], 0.97 in test [3] and 0.926 in test [4].

For the molecule `Cc1cn[nH]c1` [Fomepizole], the ALDHbr was 0.976 in test [1], 0.924 in test [2], 1.07 in test [3] and 0.853 in test [4].

For `CC(C)(Sc1cc(C(C)(C)C)c(O)c(C(C)(C)C)c1)Sc1cc(C(C)(C)C)c(O)c(C(C)(C)C)c1` [Probucol], the ALDHbr is 1.12 in test [1], 1.1 in test [2], 1.18 in test [3] and 1.04 in test [4].

In the case of `NC[C@H]1O[C@H](O[C@H]2[C@H](O[C@@H]3O[C@H](CO)[C@@H](O)[C@H]3O)[C@@H](O)[C@H](N)C[C@@H]2N)[C@H](N)[C@@H](O)[C@@H]1O` [Ribostamycin sulfate salt], the ALDHbr turned out to be 0.964 in test [1], 0.829 in test [2], 0.98 in test [3] and 1.01 in test [4].

With `Cn1cnc([N+](=O)[O-])c1Sc1ncnc2[nH]cnc12` [Azathioprine], the ALDHbr worked out at 0.603 in test [1], 0.715 in test [2], 0.837 in test [3] and 0.759 in test [4].

Regarding `CNCCC(Oc1ccccc1OC)c1ccccc1` (stereo not given) [Nisoxetine hydrochloride], the ALDHbr in test [1] came to 1.14; in test [2] it was 0.992; in test [3], 0.982; in test [4], 0.862.

Consider `CO[C@@H]1[C@@H](OC(N)=O)[C@@H](O)[C@H](Oc2ccc3c(O)c(NC(=O)c4ccc(O)c(CC=C(C)C)c4)c(=O)oc3c2C)OC1(C)C` [Novobiocin sodium salt], for which the ALDHbr turned out to be 0.955 in test [1], 0.89 in test [2], 0.827 in test [3] and 0.883 in test [4].

Turning to `Nc1ccc(S(=O)(=O)Nc2nccs2)cc1` [Sulfathiazole], the ALDHbr in test [1] worked out at 0.898; in test [2], 0.805; in test [3], 1.02; in test [4] it was 0.974.

As to `CN(Cc1ccc(C(C)(C)C)cc1)Cc1cccc2ccccc12` [Butenafine Hydrochloride], the ALDHbr in test [1] was determined as 0.805; in test [2] it was 1.08; in test [3] it was 1.08; in test [4] it was 0.95.
